Changes are numbered by the printed parent chain; changes in the protein carry UniProt numbers. Some of the results follow.
T1: RBFOX1 RRM RbFoxmut (Fox-RRM*) (Homo sapiens, UniProt Q9NWB1 109-208, R118D;E147R;N151S;E152T)
T1 sequence: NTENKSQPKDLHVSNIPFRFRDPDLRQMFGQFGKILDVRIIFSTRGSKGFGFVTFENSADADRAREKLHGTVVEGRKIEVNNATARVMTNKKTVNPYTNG

B1: GAGGGCU (DNA:RNA)
RNA: GGGAGACCGGAAUUCAGAUUGUCCGAGGGCUUUAAAUCCCGUCGUAGCCACCA
DNA 1: CAATCTGAATTCCGGTCTCCC
DNA 2: TGGTGGCTACGACGGGATT
B2: CGAGGUA (DNA:RNA)
RNA: B1 RNA with G25C, A26G, G27A, C30U, U31A
DNA 1: CAATCTGAATTCCGGTCTCCC
DNA 2: TGGTGGCTACGACGGGATT
B3: CGUAGCC (DNA:RNA)
RNA: B1 RNA with G25C, A26G, G27U, G28A, U31C
DNA 1: CAATCTGAATTCCGGTCTCCC
DNA 2: TGGTGGCTACGACGGGATT
B4: AGAGACG (DNA:RNA)
RNA: B1 RNA with G25A, A26G, G27A, G29A, U31G
DNA 1: CAATCTGAATTCCGGTCTCCC
DNA 2: TGGTGGCTACGACGGGATT
B5: GUGUCAG (DNA:RNA)
RNA: B1 RNA with A26U, G28U, G29C, C30A, U31G
DNA 1: CAATCTGAATTCCGGTCTCCC
DNA 2: TGGTGGCTACGACGGGATT
B6: GCCCACA (DNA:RNA)
RNA: B1 RNA with A26C, G27C, G28C, G29A, U31A
DNA 1: CAATCTGAATTCCGGTCTCCC
DNA 2: TGGTGGCTACGACGGGATT
B7: GCAUGGU (DNA:RNA)
RNA: B1 RNA with A26C, G27A, G28U, C30G
DNA 1: CAATCTGAATTCCGGTCTCCC
DNA 2: TGGTGGCTACGACGGGATT
B8: AAUGCCA (DNA:RNA)
RNA: B1 RNA with G25A, G27U, G29C, U31A
DNA 1: CAATCTGAATTCCGGTCTCCC
DNA 2: TGGTGGCTACGACGGGATT
B9: GGAACGG (DNA:RNA)
RNA: B1 RNA with A26G, G27A, G28A, G29C, C30G, U31G
DNA 1: CAATCTGAATTCCGGTCTCCC
DNA 2: TGGTGGCTACGACGGGATT
B10: CCUUCUG (DNA:RNA)
RNA: GGGAGACCGGAAUUCAGAUUGUCCCCUUCUGUUAAAUCCCGUCGUAGCCACCA
DNA 1: CAATCTGAATTCCGGTCTCCC
DNA 2: TGGTGGCTACGACGGGATT
B11: CCCCCGC (DNA:RNA)
RNA: B10 RNA with U27C, U28C, U30G, G31C
DNA 1: CAATCTGAATTCCGGTCTCCC
DNA 2: TGGTGGCTACGACGGGATT
B12: CAAACAU (DNA:RNA)
RNA: B10 RNA with C26A, U27A, U28A, U30A, G31U
DNA 1: CAATCTGAATTCCGGTCTCCC
DNA 2: TGGTGGCTACGACGGGATT
B13: CCCGCCC (DNA:RNA)
RNA: B10 RNA with U27C, U28G, U30C, G31C
DNA 1: CAATCTGAATTCCGGTCTCCC
DNA 2: TGGTGGCTACGACGGGATT
B14: AAUUUUA (DNA:RNA)
RNA: B10 RNA with C25A, C26A, C29U, G31A
DNA 1: CAATCTGAATTCCGGTCTCCC
DNA 2: TGGTGGCTACGACGGGATT
B15: AAUGUCC (DNA:RNA)
RNA: B1 RNA with G25A, G27U, G29U, U31C
DNA 1: CAATCTGAATTCCGGTCTCCC
DNA 2: TGGTGGCTACGACGGGATT
B16: AGUCGGC (DNA:RNA)
RNA: B10 RNA with C25A, C26G, U28C, C29G, U30G, G31C
DNA 1: CAATCTGAATTCCGGTCTCCC
DNA 2: TGGTGGCTACGACGGGATT
B17: GAAUAAC (DNA:RNA)
RNA: B1 RNA with G27A, G28U, G29A, C30A, U31C
DNA 1: CAATCTGAATTCCGGTCTCCC
DNA 2: TGGTGGCTACGACGGGATT
B18: GUUGAGU (DNA:RNA)
RNA: B1 RNA with A26U, G27U, G29A, C30G
DNA 1: CAATCTGAATTCCGGTCTCCC
DNA 2: TGGTGGCTACGACGGGATT
B19: AAGGGGU (DNA:RNA)
RNA: B1 RNA with G25A, C30G
DNA 1: CAATCTGAATTCCGGTCTCCC
DNA 2: TGGTGGCTACGACGGGATT
B20: AUUGUUC (DNA:RNA)
RNA: B10 RNA with C25A, C26U, U28G, C29U, G31C
DNA 1: CAATCTGAATTCCGGTCTCCC
DNA 2: TGGTGGCTACGACGGGATT
B21: GUUCGUU (DNA:RNA)
RNA: B1 RNA with A26U, G27U, G28C, C30U
DNA 1: CAATCTGAATTCCGGTCTCCC
DNA 2: TGGTGGCTACGACGGGATT
B22: ACUUCUU (DNA:RNA)
RNA: B10 RNA with C25A, G31U
DNA 1: CAATCTGAATTCCGGTCTCCC
DNA 2: TGGTGGCTACGACGGGATT
B23: GACGUUC (DNA:RNA)
RNA: B1 RNA with G27C, G29U, C30U, U31C
DNA 1: CAATCTGAATTCCGGTCTCCC
DNA 2: TGGTGGCTACGACGGGATT
B24: CCUUGGC (DNA:RNA)
RNA: B10 RNA with C29G, U30G, G31C
DNA 1: CAATCTGAATTCCGGTCTCCC
DNA 2: TGGTGGCTACGACGGGATT
B25: AAUUACC (DNA:RNA)
RNA: B10 RNA with C25A, C26A, C29A, U30C, G31C
DNA 1: CAATCTGAATTCCGGTCTCCC
DNA 2: TGGTGGCTACGACGGGATT
B26: CGCGUCC (DNA:RNA)
RNA: B1 RNA with G25C, A26G, G27C, G29U, U31C
DNA 1: CAATCTGAATTCCGGTCTCCC
DNA 2: TGGTGGCTACGACGGGATT
B27: UCUUACC (DNA:RNA)
RNA: B10 RNA with C25U, C29A, U30C, G31C
DNA 1: CAATCTGAATTCCGGTCTCCC
DNA 2: TGGTGGCTACGACGGGATT
B28: AGUCAGG (DNA:RNA)
RNA: B10 RNA with C25A, C26G, U28C, C29A, U30G
DNA 1: CAATCTGAATTCCGGTCTCCC
DNA 2: TGGTGGCTACGACGGGATT
B29: GAACGUC (DNA:RNA)
RNA: B1 RNA with G27A, G28C, C30U, U31C
DNA 1: CAATCTGAATTCCGGTCTCCC
DNA 2: TGGTGGCTACGACGGGATT
B30: CGCGAGC (DNA:RNA)
RNA: B10 RNA with C26G, U27C, U28G, C29A, U30G, G31C
DNA 1: CAATCTGAATTCCGGTCTCCC
DNA 2: TGGTGGCTACGACGGGATT
B31: AGACCGG (DNA:RNA)
RNA: B10 RNA with C25A, C26G, U27A, U28C, U30G
DNA 1: CAATCTGAATTCCGGTCTCCC
DNA 2: TGGTGGCTACGACGGGATT

Each binder was assayed against T1, RBFOX1 RRM RbFoxmut (Fox-RRM*) (assay: EMSA; HiTS-Eq, 1 nM pool, 10 min; buffer printed only for the single-RNA assays: 10 mM Tris pH 7.5, 150 mM NaCl, 3.4 mM EDTA, 0.001% NP-40, 30 C). Settings: tags: His6 N-terminal (pET28a); label: 5' 32P.
In short: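 Purified RbFox RRM (wild type or mutant) was equilibrated for 10 min in 50 µL with 1 nM of a 5′-radiolabelled pool of RNA with 7 randomized nucleotides, its flanks annealed to DNA oligonucleotides, across increasing protein concentrations. Free RNA was separated by 8% native PAGE, excised, reverse-transcribed, PCR-barcoded and sequenced on an Illumina HiSeq 2500. Relative association constants came from read-count changes of each variant against the control reaction, normalised to the cognate motif.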
In the case of B1, the binding signal is reported as 0.0788 KA relative to UGCAUGU. With B2 the binding signal was 0.165 KA relative to UGCAUGU. B3 was tested, and the binding signal was 0.167 KA relative to UGCAUGU. For B4, the binding signal was 0.089 KA relative to UGCAUGU. For B5, the binding signal was 0.137 KA relative to UGCAUGU. With B6 the binding signal was 0.0838 KA relative to UGCAUGU. B7 was tested, and the binding signal was 0.753 KA relative to UGCAUGU. With B8 the binding signal was 0.0793 KA relative to UGCAUGU. With B9 the binding signal was 0.221 KA relative to UGCAUGU. With B10 the binding signal was 0.082 KA relative to UGCAUGU. With B11 the binding signal was 0.151 KA relative to UGCAUGU. With B12 the binding signal was 0.0994 KA relative to UGCAUGU. B13 was tested, and the binding signal was 0.0484 KA relative to UGCAUGU. B14 was tested, and the binding signal was 0.111 KA relative to UGCAUGU. With B15 the binding signal was 0.0792 KA relative to UGCAUGU. With B16 the binding signal was 0.0981 KA relative to UGCAUGU. For B17, the binding signal was 0.126 KA relative to UGCAUGU. For B18, the binding signal was 0.151 KA relative to UGCAUGU. For B19, the binding signal was 0.0988 KA relative to UGCAUGU. With B20 the binding signal was 0.0975 KA relative to UGCAUGU. With B21 the binding signal was 0.131 KA relative to UGCAUGU. With B22 the binding signal was 0.0822 KA relative to UGCAUGU. In the case of B23, the binding signal is reported as 0.0691 KA relative to UGCAUGU. B24 was tested, and the binding signal was 0.109 KA relative to UGCAUGU. B25 was tested, and the binding signal was 0.102 KA relative to UGCAUGU. For B26, the binding signal was 0.0717 KA relative to UGCAUGU. B27 was tested, and the binding signal was 0.1 KA relative to UGCAUGU. For B28, the binding signal was 0.105 KA relative to UGCAUGU. In the case of B29, the binding signal is reported as 0.102 KA relative to UGCAUGU. For B30, the binding signal was 0.109 KA relative to UGCAUGU. In the case of B31, the binding signal is reported as 0.071 KA relative to UGCAUGU.
